In all, about 310,000 compounds went through this assay and about 2,200 (0.71%) showed an effect of 50% or more. The effect is printed as a negative number. Some of the results follow.

The test deals with human ether-à-go-go-related gene (hERG) potassium channel (human, UniProt Q12809). As to the kind of experiment: primary screen, population patch clamp on CHO cells stably expressing hERG.
Sequence of human ether-à-go-go-related gene (hERG) potassium channel (Q12809 whole entry, looked up): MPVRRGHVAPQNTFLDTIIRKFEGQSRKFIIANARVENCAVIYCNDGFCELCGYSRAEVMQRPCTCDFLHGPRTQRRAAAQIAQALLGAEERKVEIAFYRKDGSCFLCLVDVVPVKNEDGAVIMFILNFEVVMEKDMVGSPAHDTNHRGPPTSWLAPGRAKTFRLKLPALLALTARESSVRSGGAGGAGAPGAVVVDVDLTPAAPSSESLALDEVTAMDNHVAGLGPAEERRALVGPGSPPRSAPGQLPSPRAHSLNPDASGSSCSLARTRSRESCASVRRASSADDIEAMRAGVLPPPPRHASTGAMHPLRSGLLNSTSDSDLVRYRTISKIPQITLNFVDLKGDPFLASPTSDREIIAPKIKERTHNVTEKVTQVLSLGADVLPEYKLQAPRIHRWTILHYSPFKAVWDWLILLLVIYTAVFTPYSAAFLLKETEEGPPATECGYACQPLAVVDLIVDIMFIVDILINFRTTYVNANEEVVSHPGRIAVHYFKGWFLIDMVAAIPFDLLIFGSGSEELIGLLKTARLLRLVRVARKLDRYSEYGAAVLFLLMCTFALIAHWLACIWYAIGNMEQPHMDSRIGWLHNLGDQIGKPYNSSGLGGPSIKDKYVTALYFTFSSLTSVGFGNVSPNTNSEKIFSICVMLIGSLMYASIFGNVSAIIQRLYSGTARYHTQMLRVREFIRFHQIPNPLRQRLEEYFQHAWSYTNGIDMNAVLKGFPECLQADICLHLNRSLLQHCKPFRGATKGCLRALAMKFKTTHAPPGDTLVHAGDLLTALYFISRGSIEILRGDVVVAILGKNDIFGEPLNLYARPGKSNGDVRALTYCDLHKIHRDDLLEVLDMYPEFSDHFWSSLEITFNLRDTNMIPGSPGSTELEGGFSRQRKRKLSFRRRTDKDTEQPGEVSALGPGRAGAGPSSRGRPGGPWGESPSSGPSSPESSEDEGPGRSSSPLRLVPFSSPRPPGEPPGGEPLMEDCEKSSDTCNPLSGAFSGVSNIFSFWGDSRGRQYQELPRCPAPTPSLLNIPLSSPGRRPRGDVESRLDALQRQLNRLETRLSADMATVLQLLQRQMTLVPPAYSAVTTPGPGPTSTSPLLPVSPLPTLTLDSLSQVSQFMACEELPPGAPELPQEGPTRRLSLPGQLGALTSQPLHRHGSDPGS
With `Cc1[nH]c(=O)[nH]c(=O)c1Cc1cccc2ccccc12`, the “hERG current change (%, negative = inhibition) at 1uM” value was determined as 19.8%.

Turning to `O=C(NNC(=O)c1cccc2ccccc12)c1ccccc1O`, the “hERG current change (%, negative = inhibition) at 1uM” value is reported as 7.43%.

With `O=C(CSc1nnc2ccccn12)NC(=O)Cc1ccccc1`, the “hERG current change (%, negative = inhibition) at 1uM” value stood at 18.1%.

Turning to `COc1ccc(C)cc1NC(=O)C1CCCN(S(=O)(=O)c2cccc3nonc23)C1` (centres unmarked), the “hERG current change (%, negative = inhibition) at 1uM” value is 5.92%.

With `O=C(Nc1cccc(OC(=O)c2cccnc2)c1)c1cccnc1`, the “hERG current change (%, negative = inhibition) at 1uM” value came to 15.1%.

As for `COc1ccc(N=Cc2c(O)[nH]c3ccccc23)cc1`, the “hERG current change (%, negative = inhibition) at 1uM” value is listed as -11%.

In the case of `CC(=O)OCCCCON1C(=O)c2ccccc2C1=O`, the “hERG current change (%, negative = inhibition) at 1uM” value is reported as 12%.

On to `OCC[C@@H]1C[C@H](O)[C@@H](O)[C@@]2(CCCO2)O1`, for which the “hERG current change (%, negative = inhibition) at 1uM” value is -1.76%.

`CCc1ccccc1OCC(=O)Nc1cccc(S(=O)(=O)NC2=NCCCCC2)c1`: the “hERG current change (%, negative = inhibition) at 1uM” value was determined as 5.88%.

Consider `Cc1c(CC(=O)O)c(=O)oc2cc(OCc3ccc(F)cc3Cl)ccc12`, for which the “hERG current change (%, negative = inhibition) at 1uM” value worked out at 11.5%.

For `CC1CCc2nc3ccccc3c(C(=O)OCC(=O)N(C)C3CCS(=O)(=O)C3)c2C1` (centres unmarked), the “hERG current change (%, negative = inhibition) at 1uM” value stood at 8.28%.

Regarding `O=C(Nc1cccc(S(=O)(=O)NC2=NCCC2)c1)C1CCC1`, the “hERG current change (%, negative = inhibition) at 1uM” value was found to be 5.29%.

As for `O=C(NN1CCOCC1)c1ccco1`, the “hERG current change (%, negative = inhibition) at 1uM” value stood at 16.2%.

With `Fc1ccc(CSc2nncn2NCc2ccccc2)cc1`, the “hERG current change (%, negative = inhibition) at 1uM” value worked out at 3.39%.

As for `Cc1[nH]c2ccccc2c1C(=O)CN1CC=C(c2ccccc2)CC1`, the “hERG current change (%, negative = inhibition) at 1uM” value is listed as -6.34%.

In the case of `CCOC(=O)C1CCCN(c2cc(=O)n(-c3ccccc3Cl)c(=O)[nH]2)C1` (centres unmarked), the “hERG current change (%, negative = inhibition) at 1uM” value worked out at 10.9%.

Take `COc1ccc(Nc2cc(C)c3ccccc3n2)cc1`: the “hERG current change (%, negative = inhibition) at 1uM” value came out at 13.5%.

With `COc1cccc2c1OC1(CCN(C(C)C)CC1)N1N=C(c3cccnc3)CC21` (centres unmarked), the “hERG current change (%, negative = inhibition) at 1uM” value stood at 8.8%.

On to `O=C(NCC1COc2ccccc2O1)c1ccc(Cl)cc1` (centres unmarked), for which the “hERG current change (%, negative = inhibition) at 1uM” value was found to be 5.32%.

Turning to `CSCCC(NC(=O)c1ccccc1)C(=O)O` (centres unmarked), the “hERG current change (%, negative = inhibition) at 1uM” value was found to be 9.4%.

For the compound `COc1cc(C2(O)CCCCC2C)cc(OC)c1OC` (centres unmarked), the “hERG current change (%, negative = inhibition) at 1uM” value turned out to be 12.8%.

On to `CCCCOc1cccc(C(=O)O)c1`, for which the “hERG current change (%, negative = inhibition) at 1uM” value is given as 4.19%.

As for `O=C(COC(=O)c1ccc(Cl)nc1)Nc1cccnc1Cl`, the “hERG current change (%, negative = inhibition) at 1uM” value is reported as 18.1%.

In the case of `NC(=S)N/N=C1\CC(n2nnnc2-c2ccccc2)C2COC1O2` (centres unmarked), the “hERG current change (%, negative = inhibition) at 1uM” value stood at 6.36%.

For `CC1/C(=N/O)CC(c2ccco2)NC1c1ccco1` (centres unmarked), the “hERG current change (%, negative = inhibition) at 1uM” value is listed as 15.6%.

In the case of `CCc1ccc(C(=O)NC(=S)NCc2cccnc2)cc1`, the “hERG current change (%, negative = inhibition) at 1uM” value was -6.72%.

Consider `CN1CCN(S(=O)(=O)c2ccc3c(c2)NC(=O)C2CCCN32)CC1` (centres unmarked), for which the “hERG current change (%, negative = inhibition) at 1uM” value turned out to be 13.4%.

For `O=C(O)COCC(=O)Nc1cc(C(F)(F)F)cc(C(F)(F)F)c1`, the “hERG current change (%, negative = inhibition) at 1uM” value was found to be 8.94%.

As to `NC(=O)c1cnn(C2CCS(=O)(=O)C2)c1` (centres unmarked), the “hERG current change (%, negative = inhibition) at 1uM” value is listed as 11.4%.

In the case of `CCn1c(SCC(=O)NCc2ccc3c(c2)OCO3)nnc1-c1ccco1`, the “hERG current change (%, negative = inhibition) at 1uM” value was determined as 2.87%.

For the compound `Cc1c(C)n(Cc2ccccc2)c2ncnc(NCCCN(C)C)c12`, the “hERG current change (%, negative = inhibition) at 1uM” value is listed as 9.15%.

`CCOc1cccc(-c2c(C(=O)N/N=C/c3ccco3)nnn2-c2nonc2N)c1`: the “hERG current change (%, negative = inhibition) at 1uM” value was found to be 10.7%.

As for `CCCCOC(=O)Nc1nc(C)c(C(=O)OCC)s1`, the “hERG current change (%, negative = inhibition) at 1uM” value came to 0.987%.

In the case of `CCCC(=O)c1cc(-c2nc3ccccc3n2C)n(C)c1`, the “hERG current change (%, negative = inhibition) at 1uM” value is 9.66%.

For the compound `O=C(Nc1ccc(CN2CCOCC2)cc1)c1ccccc1F`, the “hERG current change (%, negative = inhibition) at 1uM” value is on record as 5.74%.

Regarding `CCN(CCCNC(=O)C1CCN(C(=O)c2cc3sccc3n2C)CC1)Cc1ccccc1`, the “hERG current change (%, negative = inhibition) at 1uM” value is listed as -10.4%.

Consider `CC(CNS(=O)(=O)c1ccccc1)(c1ccccc1)N1CCCCC1` (centres unmarked), for which the “hERG current change (%, negative = inhibition) at 1uM” value was 14.3%.

As to `Cc1cc(C)n(-c2nc3ccccc3nc2Nc2ccc3c(c2)OCO3)n1`, the “hERG current change (%, negative = inhibition) at 1uM” value came out at 21.4%.

Regarding `CCN(CC)C(=O)c1cn(-c2ccccc2)nc1-c1ccc2c(c1)OCCO2`, the “hERG current change (%, negative = inhibition) at 1uM” value was 9.11%.

Turning to `Nc1ccc(C(=O)N2CCN(S(=O)(=O)/C=C/c3ccccc3)CC2)cc1[N+](=O)[O-]`, the “hERG current change (%, negative = inhibition) at 1uM” value is reported as -3.29%.

With `CC(NC(=O)c1ccc2c(c1)OCO2)C(c1cccs1)N1CCOCC1` (centres unmarked), the “hERG current change (%, negative = inhibition) at 1uM” value was found to be 7.73%.

For `O=c1c(Cc2ccc(Cl)cc2Cl)c(O)ccn1CC(F)(F)F`, the “hERG current change (%, negative = inhibition) at 1uM” value turned out to be 8.81%.

As for `COc1ccc(N2CCN(S(=O)(=O)c3ccc4c(c3)OCCO4)CC2)cc1`, the “hERG current change (%, negative = inhibition) at 1uM” value amounted to 6.68%.

On to `COc1cc(/C=C2/C(=O)ON=C2C)ccc1OCc1ccccc1F`, for which the “hERG current change (%, negative = inhibition) at 1uM” value is 6.43%.

Consider `Cc1ccc(-c2[nH]c(=O)n3ccncc23)s1`, for which the “hERG current change (%, negative = inhibition) at 1uM” value is 15.9%.

Turning to `CCN(CC)C(=O)Cn1cc(SCC(=O)NCc2ccco2)c2ccccc21`, the “hERG current change (%, negative = inhibition) at 1uM” value is given as 5.24%.

On to `Cc1ccc2cc(CN(CC3CCCO3)S(=O)(=O)c3c(C)ccc4nsnc34)c(=O)[nH]c2c1` (centres unmarked), for which the “hERG current change (%, negative = inhibition) at 1uM” value is -4.59%.

Turning to `NC(=O)c1ccc(Oc2ccc3ccc(=O)oc3c2)c([N+](=O)[O-])c1`, the “hERG current change (%, negative = inhibition) at 1uM” value is listed as -6.58%.

For the compound `COc1ccc(C(=O)Nc2nnc(Cc3cccs3)s2)cc1OC`, the “hERG current change (%, negative = inhibition) at 1uM” value is 10.7%.

As for `CCOc1ccc(S(=O)(=O)N2CCN(C)CC2)cc1NC(=O)c1ccccc1F`, the “hERG current change (%, negative = inhibition) at 1uM” value was -22%.

As to `CC(C)C(NS(=O)(=O)c1cccs1)C(=O)NCCN1CCN(c2ccccc2)CC1` (centres unmarked), the “hERG current change (%, negative = inhibition) at 1uM” value is -4.31%.

For `CC(C(N)=O)N1c2cccc3cccc(c23)S1(=O)=O` (centres unmarked), the “hERG current change (%, negative = inhibition) at 1uM” value came out at 9.45%.

Regarding `COc1ccccc1NS(=O)(=O)c1cc(C(=O)NCC(C)(C)N2CCOCC2)ccc1C`, the “hERG current change (%, negative = inhibition) at 1uM” value stood at 5.76%.

`COc1ccc(C2C(C#N)=C(N)OC3=C2C(=O)CC(C)(C)C3)c(OC)c1OC` (centres unmarked): the “hERG current change (%, negative = inhibition) at 1uM” value is listed as 8.28%.

Regarding `C=CCNC(=S)NCc1ccccc1OC`, the “hERG current change (%, negative = inhibition) at 1uM” value turned out to be 7.33%.

With `CC/C(=N\NC(=O)c1ccccc1Cl)c1c(O)n(C2CCCCC2)c(=O)[nH]c1=O`, the “hERG current change (%, negative = inhibition) at 1uM” value was 10.6%.

Consider `O=C(CSc1ccsc1[N+](=O)[O-])NCc1ccco1`, for which the “hERG current change (%, negative = inhibition) at 1uM” value worked out at 7.57%.

Consider `O=C(COc1ccc(S(=O)(=O)N2CCCCC2)cc1)N1CCCCCC1`, for which the “hERG current change (%, negative = inhibition) at 1uM” value was determined as 4.45%.

As to `Cc1ccc(CN(Cc2ccco2)C(=S)NCC(=O)NC2CC2)cc1`, the “hERG current change (%, negative = inhibition) at 1uM” value is recorded as -0.242%.

The record behind these values is publication PMC4336329 (PLoS ONE, 2015).
